In the supplement of paper PMC11876631:
± gives the standard deviation of the averaged measurements. Laboratory Escherichia coli strains with one amino-acid change in an essential protein, pooled on minimal glucose agar with carbenicillin or gentamicin at twice the control MIC (plus kanamycin and chloramphenicol for the plasmids), 48 h. Fold change of barcode share against drug-free plates; higher = less susceptible. Active = above 20 in both replicates (the paper's putatively resistant). '<' = one read or none on drug, '>' = one read or none on a drug-free plate. Shares are relative, so most strains fall below 1 when a few take over. Listed are strains with at least 15 reads on both drug-free plates, and hits; most hits rest on fewer reference reads. Replicate rank correlation about 0.5. Edits are read from barcodes.

B1: nadD I30W (protein)
chain: MKSLQALFGGTFDPVHYGHLKPVETLANLWGLTRVTIIPNNVPPHRPQPEANSVQRKHMLELAIADKPLFTLDERELKRNAPSYTAQTLKEWRQEQGPDVPLAFIIGQDSLLTFPTWYEYETILDNAHLIVCRRPGYPLEMAQPQYQQWLEDHLTHNPEDLHLQPAGKIYLAETPWFNISATIIRERLQNGESCEDLLPEPVLTYINQQGLYR
B2: nadD L129D (protein)
chain: MKSLQALFGGTFDPVHYGHLKPVETLANLIGLTRVTIIPNNVPPHRPQPEANSVQRKHMLELAIADKPLFTLDERELKRNAPSYTAQTLKEWRQEQGPDVPLAFIIGQDSLLTFPTWYEYETILDNAHDIVCRRPGYPLEMAQPQYQQWLEDHLTHNPEDLHLQPAGKIYLAETPWFNISATIIRERLQNGESCEDLLPEPVLTYINQQGLYR
B3: nadD I130Q (protein)
chain: MKSLQALFGGTFDPVHYGHLKPVETLANLIGLTRVTIIPNNVPPHRPQPEANSVQRKHMLELAIADKPLFTLDERELKRNAPSYTAQTLKEWRQEQGPDVPLAFIIGQDSLLTFPTWYEYETILDNAHLQVCRRPGYPLEMAQPQYQQWLEDHLTHNPEDLHLQPAGKIYLAETPWFNISATIIRERLQNGESCEDLLPEPVLTYINQQGLYR
B4: nadD V131Q (protein)
chain: MKSLQALFGGTFDPVHYGHLKPVETLANLIGLTRVTIIPNNVPPHRPQPEANSVQRKHMLELAIADKPLFTLDERELKRNAPSYTAQTLKEWRQEQGPDVPLAFIIGQDSLLTFPTWYEYETILDNAHLIQCRRPGYPLEMAQPQYQQWLEDHLTHNPEDLHLQPAGKIYLAETPWFNISATIIRERLQNGESCEDLLPEPVLTYINQQGLYR
B5: nadD V131W (protein)
chain: MKSLQALFGGTFDPVHYGHLKPVETLANLIGLTRVTIIPNNVPPHRPQPEANSVQRKHMLELAIADKPLFTLDERELKRNAPSYTAQTLKEWRQEQGPDVPLAFIIGQDSLLTFPTWYEYETILDNAHLIWCRRPGYPLEMAQPQYQQWLEDHLTHNPEDLHLQPAGKIYLAETPWFNISATIIRERLQNGESCEDLLPEPVLTYINQQGLYR
B6: nadD L129A (protein)
chain: MKSLQALFGGTFDPVHYGHLKPVETLANLIGLTRVTIIPNNVPPHRPQPEANSVQRKHMLELAIADKPLFTLDERELKRNAPSYTAQTLKEWRQEQGPDVPLAFIIGQDSLLTFPTWYEYETILDNAHAIVCRRPGYPLEMAQPQYQQWLEDHLTHNPEDLHLQPAGKIYLAETPWFNISATIIRERLQNGESCEDLLPEPVLTYINQQGLYR
B7: nadD I130A (protein)
chain: MKSLQALFGGTFDPVHYGHLKPVETLANLIGLTRVTIIPNNVPPHRPQPEANSVQRKHMLELAIADKPLFTLDERELKRNAPSYTAQTLKEWRQEQGPDVPLAFIIGQDSLLTFPTWYEYETILDNAHLAVCRRPGYPLEMAQPQYQQWLEDHLTHNPEDLHLQPAGKIYLAETPWFNISATIIRERLQNGESCEDLLPEPVLTYINQQGLYR
B8: nadD I30D (protein)
chain: MKSLQALFGGTFDPVHYGHLKPVETLANLDGLTRVTIIPNNVPPHRPQPEANSVQRKHMLELAIADKPLFTLDERELKRNAPSYTAQTLKEWRQEQGPDVPLAFIIGQDSLLTFPTWYEYETILDNAHLIVCRRPGYPLEMAQPQYQQWLEDHLTHNPEDLHLQPAGKIYLAETPWFNISATIIRERLQNGESCEDLLPEPVLTYINQQGLYR
B9: nadD I130P (protein)
chain: MKSLQALFGGTFDPVHYGHLKPVETLANLIGLTRVTIIPNNVPPHRPQPEANSVQRKHMLELAIADKPLFTLDERELKRNAPSYTAQTLKEWRQEQGPDVPLAFIIGQDSLLTFPTWYEYETILDNAHLPVCRRPGYPLEMAQPQYQQWLEDHLTHNPEDLHLQPAGKIYLAETPWFNISATIIRERLQNGESCEDLLPEPVLTYINQQGLYR
B10: nadD I30Q (protein)
chain: MKSLQALFGGTFDPVHYGHLKPVETLANLQGLTRVTIIPNNVPPHRPQPEANSVQRKHMLELAIADKPLFTLDERELKRNAPSYTAQTLKEWRQEQGPDVPLAFIIGQDSLLTFPTWYEYETILDNAHLIVCRRPGYPLEMAQPQYQQWLEDHLTHNPEDLHLQPAGKIYLAETPWFNISATIIRERLQNGESCEDLLPEPVLTYINQQGLYR
B11: nadD L129P (protein)
chain: MKSLQALFGGTFDPVHYGHLKPVETLANLIGLTRVTIIPNNVPPHRPQPEANSVQRKHMLELAIADKPLFTLDERELKRNAPSYTAQTLKEWRQEQGPDVPLAFIIGQDSLLTFPTWYEYETILDNAHPIVCRRPGYPLEMAQPQYQQWLEDHLTHNPEDLHLQPAGKIYLAETPWFNISATIIRERLQNGESCEDLLPEPVLTYINQQGLYR
B12: nadD V131A (protein)
chain: MKSLQALFGGTFDPVHYGHLKPVETLANLIGLTRVTIIPNNVPPHRPQPEANSVQRKHMLELAIADKPLFTLDERELKRNAPSYTAQTLKEWRQEQGPDVPLAFIIGQDSLLTFPTWYEYETILDNAHLIACRRPGYPLEMAQPQYQQWLEDHLTHNPEDLHLQPAGKIYLAETPWFNISATIIRERLQNGESCEDLLPEPVLTYINQQGLYR
B13: nadD I130W (protein)
chain: MKSLQALFGGTFDPVHYGHLKPVETLANLIGLTRVTIIPNNVPPHRPQPEANSVQRKHMLELAIADKPLFTLDERELKRNAPSYTAQTLKEWRQEQGPDVPLAFIIGQDSLLTFPTWYEYETILDNAHLWVCRRPGYPLEMAQPQYQQWLEDHLTHNPEDLHLQPAGKIYLAETPWFNISATIIRERLQNGESCEDLLPEPVLTYINQQGLYR
B14: nadD L129Q (protein)
chain: MKSLQALFGGTFDPVHYGHLKPVETLANLIGLTRVTIIPNNVPPHRPQPEANSVQRKHMLELAIADKPLFTLDERELKRNAPSYTAQTLKEWRQEQGPDVPLAFIIGQDSLLTFPTWYEYETILDNAHQIVCRRPGYPLEMAQPQYQQWLEDHLTHNPEDLHLQPAGKIYLAETPWFNISATIIRERLQNGESCEDLLPEPVLTYINQQGLYR
B15: nadD I30P (protein)
chain: MKSLQALFGGTFDPVHYGHLKPVETLANLPGLTRVTIIPNNVPPHRPQPEANSVQRKHMLELAIADKPLFTLDERELKRNAPSYTAQTLKEWRQEQGPDVPLAFIIGQDSLLTFPTWYEYETILDNAHLIVCRRPGYPLEMAQPQYQQWLEDHLTHNPEDLHLQPAGKIYLAETPWFNISATIIRERLQNGESCEDLLPEPVLTYINQQGLYR
B16: asnS L383A (protein)
chain: MSVVPVADVLQGRVAVDSEVTVRGWVRTRRDSKAGISFLAVYDGSCFDPVQAVINNSLPNYNEDVLRLTTGCSVIVTGKVVASPGQGQQFEIQASKVEVAGWVEDPDTYPMAAKRHSIEYLREVAHLRPRTNLIGAVARVRHTLAQALHRFFNEQGFFWVSTPLITASDTEGAGEMFRVSTLDLENLPRNDQGKVDFDKDFFGKESFLTVSGQLNGETYACALSKIYTFGPTFRAENSNTSRHLAEFWMLEPEVAFANLNDIAGLAEAMLKYVFKAVLEERADDMKFFAERVDKDAVSRLERFIEADFAQVDYTDAVTILENCGRKFENPVYWGVDLSSEHERYLAEEHFKAPVVVKNYPKDIKAFYMRLNEDGKTVAAMDVAAPGIGEIIGGSQREERLDVLDERMLEMGLNKEDYWWYRDLRRYGTVPHSGFGLGFERLIAYVTGVQNVRDVIPFPRTPRNASF
B17: asnS L383W (protein)
chain: MSVVPVADVLQGRVAVDSEVTVRGWVRTRRDSKAGISFLAVYDGSCFDPVQAVINNSLPNYNEDVLRLTTGCSVIVTGKVVASPGQGQQFEIQASKVEVAGWVEDPDTYPMAAKRHSIEYLREVAHLRPRTNLIGAVARVRHTLAQALHRFFNEQGFFWVSTPLITASDTEGAGEMFRVSTLDLENLPRNDQGKVDFDKDFFGKESFLTVSGQLNGETYACALSKIYTFGPTFRAENSNTSRHLAEFWMLEPEVAFANLNDIAGLAEAMLKYVFKAVLEERADDMKFFAERVDKDAVSRLERFIEADFAQVDYTDAVTILENCGRKFENPVYWGVDLSSEHERYLAEEHFKAPVVVKNYPKDIKAFYMRLNEDGKTVAAMDVWAPGIGEIIGGSQREERLDVLDERMLEMGLNKEDYWWYRDLRRYGTVPHSGFGLGFERLIAYVTGVQNVRDVIPFPRTPRNASF

Each protein was assayed against Escherichia coli (laboratory strain) (assay: barcode share on antibiotic plates over drug-free plates; higher = less susceptible). Conditions: antibiotic: carbenicillin; 2× MIC (3.1 µg/mL).
Description: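 A pool of E. coli strains, each edited to carry one amino-acid change in an essential protein, was grown for 48 h on minimal glucose agar with or without antibiotic; strain barcodes were sequenced; mean of two replicates.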

Protein	fold change of barcode share
B1	0.181 ± 0.046
B2	0.728 ± 0.071
B3	0.344 ± 0.055
B4	0.424 ± 0.27
B5	0.345 ± 0.039
B6	0.313 ± 0.15
B7	0.3 ± 0.016
B8	0.33 ± 0.053
B9	0.309 ± 0.081
B10	0.391 ± 0.1
B11	0.289 ± 0.15
B12	0.283 ± 0.071
B13	0.313 ± 0.021
B14	0.373 ± 0.21
B15	0.256 ± 0.015
B16	0.866 ± 0.69
B17	0.37 ± 0.073

Same assay, conditions: antibiotic: gentamicin; 2× MIC (MIC 0.45 µg/mL)

Protein	fold change of barcode share
B1	< 0.00361
B3	< 0.00233
B4	0.00979 ± 0.0037
B5	0.0093 ± 0.0073
B6	0.00663 ± 0.003
B7	< 0.00394
B8	< 0.00748
B9	0.0038 ± 0.00072
B10	0.0183 ± 0.014
B11	< 0.00701
B12	0.00808 ± 0.0072
B13	< 0.0044
B14	< 0.0115
B15	< 0.00509
B16	0.00585 ± 0.0037
B17	0.00251 ± 0.0023
